In the supplement of paper PMC7826260:
This is one part of the list. Viral Rep nickase domains cut single-stranded DNA in vitro (3 µM enzyme, 1 h, 37 °C); shown is the middle of each 90-letter strand. The score is log2 (uncut reads / reads without enzyme); the lower, the more was cut; hits are not called. The scaling is to total reads; values above 0 arise when much of the pool is cut.

Key:
Test in all cases: uncleaved DNA left, log2 of reads against the no-enzyme library (log2 ratio); higher = less cleavage (more negative = more Rep cleavage of the k-mer); sequences stand for … in CTCGTCCG…ACCGGAGA
[1] = system: T1, Rep nickase domain of Muscovy duck circovirus
T1 sequence (protein, residues 1-111, tag omitted): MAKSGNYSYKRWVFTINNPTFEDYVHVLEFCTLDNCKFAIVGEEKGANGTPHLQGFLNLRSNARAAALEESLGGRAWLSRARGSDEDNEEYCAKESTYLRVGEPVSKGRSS
Procedure: (§1)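 A pool of 90-nt single-stranded DNAs with seven random bases just before the constant AC of the nick site (name = the seven bases) was cut by 3 µM recombinant His6-SUMO-tagged Rep nickase domain (300 nM DNA, 50 mM HEPES pH 8.0, 50 mM NaCl, 1 mM MnCl2, 1 h, 37 °C, three replicates). Uncut DNA was amplified and sequenced.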

[2] = system: T2, Rep nickase domain of banana bunchy top virus
T2 sequence (protein, residues 1-94, tag omitted): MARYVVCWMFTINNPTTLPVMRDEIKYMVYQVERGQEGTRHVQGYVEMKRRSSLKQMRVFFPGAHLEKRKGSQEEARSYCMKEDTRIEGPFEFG
Procedure: as §1

[3] = system: T3, Rep nickase domain of cabbage leaf curl virus
T3 sequence (protein, residues 1-116, tag omitted): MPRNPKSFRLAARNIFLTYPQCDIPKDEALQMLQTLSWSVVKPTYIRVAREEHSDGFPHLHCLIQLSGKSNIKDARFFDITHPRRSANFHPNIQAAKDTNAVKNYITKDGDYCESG
Procedure: as §1

[4] = system: T4, Rep nickase domain of chickpea chlorotic dwarf virus
T4 sequence (protein, residues 1-124, tag omitted): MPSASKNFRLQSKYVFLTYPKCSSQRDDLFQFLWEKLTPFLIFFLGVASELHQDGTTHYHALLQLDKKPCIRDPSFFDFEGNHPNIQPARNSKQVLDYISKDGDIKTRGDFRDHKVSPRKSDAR
Procedure: as §1

[5] = system: T5, Rep nickase domain of faba bean necrotic yellows virus
T5 sequence (protein, residues 1-98, tag omitted): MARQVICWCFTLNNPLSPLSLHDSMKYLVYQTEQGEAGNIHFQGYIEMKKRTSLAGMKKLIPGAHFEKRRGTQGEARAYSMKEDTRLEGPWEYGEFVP
Procedure: as §1

[6] = system: T6, Rep nickase domain of maize striate mosaic virus
T6 sequence (protein, residues 1-117, tag omitted): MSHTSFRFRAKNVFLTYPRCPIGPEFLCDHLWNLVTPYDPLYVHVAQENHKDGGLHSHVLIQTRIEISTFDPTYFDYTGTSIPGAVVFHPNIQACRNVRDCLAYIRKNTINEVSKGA
Procedure: as §1

[7] = system: T7, Rep nickase domain of porcine circovirus 2
T7 sequence (protein, residues 2-116, tag omitted): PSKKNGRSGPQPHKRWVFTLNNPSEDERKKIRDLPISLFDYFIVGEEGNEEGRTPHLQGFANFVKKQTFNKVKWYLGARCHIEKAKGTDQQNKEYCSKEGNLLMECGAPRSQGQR
Procedure: as §1

[8] = system: T8, Rep nickase domain of tomato golden mosaic virus
T8 sequence (protein, residues 1-124, tag omitted): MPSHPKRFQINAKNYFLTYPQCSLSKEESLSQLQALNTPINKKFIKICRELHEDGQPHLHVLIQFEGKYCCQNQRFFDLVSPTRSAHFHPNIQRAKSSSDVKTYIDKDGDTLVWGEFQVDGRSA
Procedure: as §1

[9] = system: T9, Rep nickase domain of tomato yellow leaf curl virus
T9 sequence (protein, residues 1-136, tag omitted): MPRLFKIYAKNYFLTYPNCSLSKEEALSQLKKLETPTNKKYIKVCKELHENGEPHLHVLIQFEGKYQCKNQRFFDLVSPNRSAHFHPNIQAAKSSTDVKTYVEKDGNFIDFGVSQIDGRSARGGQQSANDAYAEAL
Procedure: as §1

[10] = system: T10, Rep nickase domain of wheat dwarf virus
T10 sequence (protein, residues 1-137, tag omitted): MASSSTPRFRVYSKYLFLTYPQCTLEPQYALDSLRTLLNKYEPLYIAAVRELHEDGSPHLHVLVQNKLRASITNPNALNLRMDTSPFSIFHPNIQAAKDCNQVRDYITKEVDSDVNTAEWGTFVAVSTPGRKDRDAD
Procedure: as §1

| Sequence | uncleaved DNA left (log2) [1] | uncleaved DNA left (log2) [2] | uncleaved DNA left (log2) [3] | uncleaved DNA left (log2) [4] | uncleaved DNA left (log2) [5] | uncleaved DNA left (log2) [6] | uncleaved DNA left (log2) [7] | uncleaved DNA left (log2) [8] | uncleaved DNA left (log2) [9] | uncleaved DNA left (log2) [10] |
| --- | --- | --- | --- | --- | --- | --- | --- | --- | --- | --- |
| GCTTAGA | 0.0794 | 0.0408 | 0.132 | 0.415 | 0.1 | -0.232 | 0.198 | 0.126 | 0.14 | 0.117 |
| CACACTA | -0.232 | -0.113 | -0.331 | -2.66 | -0.00575 | -0.976 | -0.221 | -0.127 | -0.117 | -0.134 |
| ACATAAG | -0.0273 | 0.0722 | -0.445 | 0.836 | 0.0587 | 0.112 | 0.112 | -0.00887 | 0.0423 | -0.101 |
| ATCGATC | 0.0261 | -0.091 | -0.148 | 0.0766 | 0.0225 | -0.47 | -0.08 | -0.146 | -0.115 | -0.0443 |
| AATAAAG | 0.0323 | -0.0188 | -0.781 | -0.37 | 0.0744 | -1.2 | 0.181 | 0.0478 | 0.0551 | -0.0532 |
| GCAACCG | -0.0752 | -0.111 | -0.826 | -0.834 | -0.126 | -0.97 | -0.136 | -0.032 | -0.148 | -0.23 |
| CGATGAT | -0.184 | -0.00332 | 0.149 | 0.392 | -0.078 | 0.923 | -0.907 | 0.0753 | -0.0663 | -0.0919 |
| GGGACTA | 0.00435 | 0.117 | 0.869 | 2.14 | -0.0464 | 2.33 | 0.18 | 0.0391 | -0.0533 | 0.178 |
| TCTAGTA | -0.0537 | -0.186 | -0.00233 | -1.04 | 0.00866 | -0.501 | -0.142 | 0.00317 | 0.0208 | -0.131 |
| AACCGCG | -0.000114 | 0.031 | -0.451 | 0.872 | 0.111 | 0.0377 | 0.011 | -0.0619 | 0.106 | 0.0216 |
| ACCCACA | 0.163 | -0.0628 | -0.0666 | -1.15 | 0.183 | -0.56 | -0.0448 | -0.0415 | 0.00765 | 0.064 |
| CTGGATA | -0.00161 | -0.0092 | 0.137 | 0.861 | 0.0642 | 1.12 | 0.0657 | – | -0.0668 | 0.00995 |
| GACCCAG | 0.0237 | -0.00777 | -0.391 | -0.273 | -0.0407 | -0.698 | -0.148 | – | -0.00437 | -0.046 |
| AACCTAT | -0.115 | -0.0309 | -0.164 | -1.95 | -0.0437 | -0.6 | -1.2 | – | -0.018 | -0.04 |
| GTTACAT | 0.00414 | 0.167 | 0.592 | 1.45 | 0.012 | 2.1 | 0.185 | – | 0.169 | 0.166 |
| GGGACTT | 0.0778 | 0.105 | 1.02 | 2.18 | 0.0846 | 2.39 | 0.303 | – | -0.0739 | 0.255 |

| Sequence | uncleaved DNA left (log2) [1] | uncleaved DNA left (log2) [2] | uncleaved DNA left (log2) [3] | uncleaved DNA left (log2) [4] | uncleaved DNA left (log2) [5] | uncleaved DNA left (log2) [6] | uncleaved DNA left (log2) [7] | uncleaved DNA left (log2) [8] | uncleaved DNA left (log2) [9] | uncleaved DNA left (log2) [10] |
| --- | --- | --- | --- | --- | --- | --- | --- | --- | --- | --- |
| ACAACCC | -0.255 | -0.116 | -0.17 | -0.576 | -0.118 | -0.618 | -0.557 | – | -0.106 | -0.14 |
| TGCAGCC | -0.0618 | -0.15 | -0.159 | -0.183 | -0.0815 | -0.774 | 0.0701 | – | -0.138 | -0.186 |
| CCGCAAG | 0.0424 | -0.0335 | -0.713 | -0.407 | 0.024 | -0.661 | 0.239 | – | 0.0273 | -0.0713 |
| GACTGGC | -0.118 | -0.147 | -0.0612 | 0.278 | -0.0863 | -0.0082 | -0.0238 | – | -0.101 | -0.0374 |
| CAAAAAA | 0.0436 | 0.0389 | 0.0484 | -0.686 | 0.0986 | -0.65 | 0.15 | – | 0.0249 | 0.00181 |
| TCCCGAG | 0.158 | 0.211 | 0.804 | 1.53 | 0.125 | 0.987 | 0.251 | – | 0.184 | 0.358 |
| GTACGTT | -0.0992 | -0.177 | 0.0751 | 0.211 | -0.083 | 1.53 | -0.0275 | – | -0.121 | -0.184 |
| TTGCTCC | -0.118 | -0.175 | -0.188 | -0.472 | -0.0377 | -0.838 | -0.0384 | – | -0.0778 | -0.183 |
| CCCTGGC | 0.106 | -0.141 | -0.133 | -0.323 | 0.0467 | -0.694 | -0.0645 | – | -0.053 | -0.00761 |
| TCTCCGT | -0.026 | -0.0993 | -0.0474 | -0.174 | -0.0994 | 0.274 | -0.0465 | – | -0.136 | -0.0756 |
| TTTTCGT | -0.162 | -0.15 | -0.334 | -1.02 | -0.131 | -1.25 | -0.296 | – | -0.125 | -0.123 |
| GAGCTGA | 0.158 | 0.142 | 0.346 | 1.58 | 0.0134 | 1.71 | 0.147 | – | -0.0272 | 0.141 |
| GCTTAGT | -1.33 | -0.22 | 0.0715 | 0.0456 | 0.0753 | -0.204 | -2.16 | – | 0.0618 | -0.0908 |
| GTCGCCG | -0.0412 | 0.0102 | 0.0621 | 0.0329 | 0.041 | -0.096 | 0.0355 | – | -0.0692 | -0.113 |
| AGACTAC | 0.0745 | -0.108 | 0.159 | -0.125 | -0.0511 | 1.05 | 0.042 | – | -0.0228 | -0.13 |
